Values joined by “and” are separate entries in the source; they are usually repeats but may differ in a detail not shown here. Identical values can stand only once.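 Dose response: 5 concentrations. Exposure: 48 h. Format: 96-well plates. Endpoint: linear interpolation; highest concentration if not reached. GI50: concentration for 50% inhibition of growth. TGI marks complete inhibition of growth.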
Tested on: NCI-H322M lung
Assay: NCI anticancer screen, dose series, 48 h

Point of comparison: `COc1cc(/C=C/C(=O)c2ccc(Cl)cc2)ccc1OS(=O)(=O)c1ccc(C)cc1`, GI50 90.5 µM. Against it:
- C[C@H]1CCC/C=C/[C@@H]2C[C@H](O)C[C@H]2[C@H](O)[C@@H](S(=O)CCN(C)C)CC(=O)O1 (stereo partly specified) — 380-fold lower, 0.237 µM
- OCCCCC#Cc1ccccc1C#Cc1ccccc1C(F)(F)F — 7.2-fold lower, 12.6 µM
- CC1(C)N=C(N)N=C(N)N1c1cc(Cl)ccc1Cl — higher, > 100 µM
- Cc1ccc2c(N)c(C(=O)N[C@H]3CCc4cc(N5CC6CCC(C5)N6)ccc4C3)sc2n1 — 230-fold lower, 0.386 µM
- CCOC(=O)Oc1c(OC)cc(C(=O)O[C@@H]2C[C@@H]3CN4CCc5c([nH]c6cc(OC)ccc56)[C@H]4C[C@@H]3[C@H](C(=O)OC)[C@H]2OC)cc1OC — 4.9-fold lower, 18.6 µM
- O=C(Nc1ccc(Cl)cc1)c1cc2ccccc2cc1O — 30-fold lower, 2.99 µM
- C=C(CN1CCc2ccccc2C1)c1ccc(C(=O)Nc2ccc(N)cc2)cc1 — 4.8-fold lower, 18.7 µM
- COC(=O)/C(=C\c1c(C)[nH]c2ccccc12)S(=O)(=O)c1ccccc1 — 10-fold lower, 8.81 µM
- Cc1ccc2c(=O)c3cccc(CC(=O)O)c3oc2c1C — higher, > 100 µM
- O=C(NC(=S)Nc1ccc(Cl)cc1)c1ccccc1 — higher, > 100 µM
- COc1ccc(-c2nc(-c3ccccc3)c(-c3ccccc3)n2C2CC2)cc1OC1CCCC1 — higher, > 165 µM
- CCN(CC)CCCCCCCNc1c2ccc(Cl)cc2nc2ccc(OC)cc12 — 230-fold lower, 0.4 µM
- C=C1C(=O)O[C@H]2[C@H]1CC/C(Cn1cc(-c3ccccc3)nn1)=C\CC[C@@]1(C)O[C@@H]21 — 12-fold lower, 7.79 µM
- O=C1OC(=O)C2C1C1(c3ccccc3)C(c3ccccc3)=C(c3ccccc3)C2(c2ccccc2)S1=O (stereo unspecified) — higher, > 100 µM
- O=[N+]([O-])/C=C/c1c[nH]c2ccccc12 — 5.6-fold lower, 16.3 µM

Point of comparison: `CC(=O)OC(C)(C)/C=C/C(=O)[C@](C)(O)[C@H]1[C@H](O)C[C@@]2(C)[C@@H]3CC=C4[C@@H](C[C@H](O)C(=O)C4(C)C)[C@]3(C)C(=O)C[C@]12C`, TGI 13.4 µM. Against it:
- C=C1C(=O)OC2CC3(CO3)C3C(O)C(O)CC3(C)CC12 (stereo unspecified) — higher, > 100 µM
- CCOC(=O)C(=O)Nc1c(N(CC)CC)n2ccccc2nc1=O — higher, > 100 µM
- O=C(O)CN1CCN(CC(=O)O)CCN(CC(=O)O)CCN(CC(=O)O)CC1 — higher, > 100 µM
- CCC(=O)COc1ccc(NC(NC(=O)C(C(F)(F)F)C(F)(F)F)(C(F)(F)F)C(F)(F)F)cc1 — higher, > 100 µM
- O=C(Nc1nc(C23CC4CC(CC(C4)C2)C3)cs1)c1cc2cc(Br)cc(Br)c2oc1=O — higher, > 100 µM
- C=C1C(=O)C23CC1C[C@H](OC(C)=O)C2C1(C)C(OC(C)=O)C[C@H](O)C(C)(C)[C@H]1C(O)[C@@H]3OC(C)=O (stereo partly specified) — 3.3-fold higher, 43.9 µM
- O=C(c1ccccc1)c1c(C(=O)c2ccccc2)c(-c2ccccc2)c2c(-c3ccccc3)sc(-c3ccccc3)c2c1-c1ccccc1 — higher, > 100 µM
- COc1ccc(OC)c2nc3c(C(=O)NCCN(C)C)cccc3nc12 — 1.9-fold higher, 25.5 µM
- CC1=C(OC2OC(CO)C(O)C(O)C2O)C(=O)C[C@H]2C1=CC[C@@H]1[C@@]2(C)C(=O)C[C@]2(C)[C@@H]([C@@](C)(O)C(=O)CCC(C)(C)O)[C@H](O)C[C@@]12C (stereo partly specified) — higher, > 100 µM
- COC12C=CC(CC1)C1C(=O)c3c(C)c(C)n(C)c3C(=O)C12 (stereo unspecified) — higher, > 100 µM
- N#CC12C3C4CC5C6C4C1C6C(O)(C53)N2Cc1ccccc1 (stereo unspecified) — higher, > 100 µM
- OCCCCC#Cc1ccccc1C#Cc1ccccc1C(F)(F)F — 2-fold higher, 26.5 µM
- Cc1c2c(n(CCc3ccccc3)c1C)NN=C(C#N)S2(=O)=O — higher, > 100 µM
- C/C=C(/C)C(=O)O[C@H]1C(C)=C[C@]23C(=O)[C@@H](C=C(COC(C)=O)[C@@H](O)[C@]12O)[C@H]1[C@@H](C[C@H]3C)[C@@]1(C)OC(=O)/C(C)=C\C — 2.1-fold lower, 6.51 µM
- CC1(C)N=C(N)N=C(N)N1c1cc(Cl)ccc1Cl — higher, > 100 µM
- COC[n+]1cc2cc(OC)c(OC)cc2c2ccc3cc(OC)c(OC)cc3c21 — higher, > 100 µM
- Cc1ccc2c(N)c(C(=O)N[C@H]3CCc4cc(N5CC6CCC(C5)N6)ccc4C3)sc2n1 — 6.1-fold lower, 2.21 µM
- CCOC(=O)Oc1c(OC)cc(C(=O)O[C@@H]2C[C@@H]3CN4CCc5c([nH]c6cc(OC)ccc56)[C@H]4C[C@@H]3[C@H](C(=O)OC)[C@H]2OC)cc1OC — 5.3-fold higher, 71.3 µM
- CC(=O)Nc1ccc(C2[C@H]3C(=O)N(c4ccc(Cc5ccc(N6C(=O)[C@@H]7ON(c8ccccc8)C(c8ccc(NC(C)=O)cc8)[C@@H]7C6=O)cc5)cc4)C(=O)[C@H]3ON2c2ccccc2)cc1 (stereo partly specified) — higher, > 100 µM
- CC(=O)OCC1OC(n2c(=O)n(-c3ccccc3)c(=O)c3ccccc32)C(OC(C)=O)C(OC(C)=O)C1OC(C)=O (stereo unspecified) — higher, > 100 µM
- O=C(Nc1ccc(Cl)cc1)c1cc2ccccc2cc1O — higher, > 100 µM
- C=C(CN1CCc2ccccc2C1)c1ccc(C(=O)Nc2ccc(N)cc2)cc1 — 5.8-fold higher, 77.7 µM
- CC(C)/C=N\n1c(N)c(C#N)c(C#N)c1C(C)C — higher, > 100 µM
- Cc1cc2oc(=O)[nH]c(=S)c2c(C)c1C — higher, > 100 µM
- COc1ccc(-c2cn[nH]c2-c2cc(OC)c(OC)c(OC)c2)cc1N — higher, > 100 µM
- CC1=NN(C(=O)Cc2ccccc2)C(=O)/C1=C\C=C\c1ccccc1 — higher, > 100 µM
- COC(=O)/C(=C\c1c(C)[nH]c2ccccc12)S(=O)(=O)c1ccccc1 — 2.1-fold higher, 28.5 µM
- CC(C)CCC[C@@H](C)C1CCC2[C@@H]3CCC4CC(CCC=C(c5cc(Cl)c(OC(=O)c6ccccc6)c(C(=O)O)c5)c5cc(Cl)c(OC(=O)c6ccccc6)c(C(=O)O)c5)CC[C@]4(C)C3CC[C@@]21C (stereo partly specified) — higher, > 100 µM
- O=c1cc2ccccc2nn1-c1ccccc1Cl — higher, > 100 µM
- CC(=O)CCC[C@@H](C)[C@@H]1O[C@H]([C@@]2(C)CCC(=O)O2)C[C@H]2C(CSc3ccccc3)C(=O)O[C@@H]12 (stereo partly specified) — higher, > 55.9 µM
- Cc1ccc2c(=O)c3cccc(CC(=O)O)c3oc2c1C — higher, > 100 µM
- O=C(NC(=S)Nc1ccc(Cl)cc1)c1ccccc1 — higher, > 100 µM
- COC(=O)c1c(C(=O)OC)c2cc(C(=O)c3ccccc3)ccn2c1Cl — higher, > 100 µM
- COc1cc(/C=C/C(=O)c2ccc(Cl)cc2)ccc1OS(=O)(=O)c1ccc(C)cc1 — higher, > 100 µM
- COc1ccc(-c2nc(-c3ccccc3)c(-c3ccccc3)n2C2CC2)cc1OC1CCCC1 — higher, > 165 µM
- COc1cc2cc(C(=O)N3CC(CCl)c4ccc(NCCN)cc43)[nH]c2c(OC)c1OC (stereo unspecified) — 4.1-fold lower, 3.24 µM
- CCOC(=O)CCC(NC(=O)c1ccc(Nc2nc3cc(C(F)(F)F)ccc3nc2-c2ccccc2)cc1)C(=O)OCC (stereo unspecified) — higher, > 100 µM
- COc1cccc(-c2cc(=O)c3cc(N)ccc3[nH]2)c1 — higher, > 100 µM
- O=C1CCCC2=C1CC1=C(CCCC1=O)N2c1cccc2ccccc12 — higher, > 100 µM
- Cc1cc2c(s1)C(=O)c1sccc1C2=O — 4.1-fold lower, 3.23 µM
- C=C1C(=O)OC2C1C(OC(=O)/C(C)=C/C)CC1(C)C(=O)CCC(=C)C21 (stereo unspecified) — 3.4-fold higher, 45.5 µM
- CCOC(=O)c1nc2ccc(C(F)(F)F)cc2nc1Oc1ccc(F)cc1 — higher, > 100 µM
- CCN(CC)CCCCCCCNc1c2ccc(Cl)cc2nc2ccc(OC)cc12 — 8.7-fold lower, 1.54 µM
- O=C1C(=O)c2ccccc2C(O)=C1C(CCc1ccccc1)C1=C(O)c2ccccc2C(=O)C1=O — higher, > 100 µM
- C=C1C(=O)O[C@H]2[C@H]1CC/C(Cn1cc(-c3ccccc3)nn1)=C\CC[C@@]1(C)O[C@@H]21 — within 1.5-fold, 15.4 µM
- CC1[C@@H](OCc2ccccc2)COC(=O)N1Cc1ccccc1 (stereo partly specified) — higher, > 100 µM
- CCOC(=O)CC1=CSC2=NCCN12 — higher, > 100 µM
- Cc1c2cc[nH]c(=O)c2cc2c(=O)c3cnccc3[nH]c12 — higher, > 100 µM
- COC(=O)c1nc(NC#N)[nH]c(=O)c1C — higher, > 100 µM
- O=C1CC2(CCC(O)(c3ccc(Cl)cc3)C(C(=O)c3ccc(Cl)cc3)C2)C(=O)c2ccccc2N1 (stereo unspecified) — higher, > 92.4 µM
- O=C1CCC2SC1CCC2=O — higher, > 100 µM
- ON=C1CCC(c2ccccc2)CC1 (stereo unspecified) — higher, > 100 µM
- O=C(/C=C/c1ccc(O)cc1)NCCc1ccc(O)cc1 — not separable, > 12.5 µM
- C=C(C)[C@@H]1CC[C@]2(C(=O)O)CC[C@]3(C)[C@H](CC[C@@H]4[C@@]5(C)CC[C@H](C(=O)/C=C/c6ccc(O)cc6)C(C)(C)[C@@H]5CC[C@]43C)[C@@H]12 — 1.8-fold higher, 23.5 µM
- COc1ccc(C2C(Cl)C(=O)N2NC(=O)Cc2ccccc2)cc1 (stereo unspecified) — higher, > 100 µM
- CC1(O)/C(=N/O)CC2CC1C2(C)C (stereo unspecified) — higher, > 100 µM
- CCCCCc1c2nc(c(CCCCC)c3ccc([nH]3)c(CCCCC)c3ccc([nH]3)c(CCCCC)c3nc1C=C3)C=C2 — higher, > 100 µM
- CC(C)(C)[C@H]1CO[C@]2(C)[C@@H]3C[C@@H]3C(=O)N12 — higher, > 100 µM
- CC(C(=O)Oc1ccc2ccccc2c1-c1c(O)ccc2ccccc12)c1ccccc1 (stereo unspecified) — 2.2-fold higher, 29.6 µM
- O=C1OC(=O)C2C1C1(c3ccccc3)C(c3ccccc3)=C(c3ccccc3)C2(c2ccccc2)S1=O (stereo unspecified) — higher, > 100 µM
- O=[N+]([O-])/C=C/c1c[nH]c2ccccc12 — 2.3-fold higher, 30.2 µM
- CC[N+](CC)(CC)CCCn1c2c(c3ccccc3c1=O)C(=O)c1ccccc1-2 — 12-fold lower, 1.12 µM

With `COc1ccc(-c2cn[nH]c2-c2cc(OC)c(OC)c(OC)c2)cc1N` the GI50 was 0.0622 µM and 0.0988 µM.

In the case of `Cn1c2nc3ccccc3c-2cc2ccccc21`, the TGI is reported as > 28.7 µM and 14 µM.

From PubChem BioAssay (NCI)
